{"source": "PubChem BioAssay AID2147", "about": "(National Center for Advancing Translational Sciences (NCATS), 2009)", "note": "Among all 230,000 compounds or so, about 3,600 (1.6%) were called active. Inconclusive means that the source gave no clear call. Such entries were picked first, then a sample of the others. Calls follow the shape of the dose curve; as a rule, active = well fitted inhibition curve with a large enough effect (not every such curve was filed as active); inconclusive = small, poorly fitted or top-dose-only effect, or another doubt; inactive = no such curve, though single readings can be large or run the other way. Potencies of inconclusive entries are doubtful fits and often do not repeat. Also: nearly all actives have a fitted effect of over 50% in size.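 For activity change, negative = inhibition in this document: 0% = wells with enzyme and -100% = buffer wells without enzyme.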 Potency is read from the fitted curve at half-maximal effect; tags tell the direction and shape of the fitted curve."}
{"molecular_target": "Lysine-specific demethylase 4E (Homo sapiens) (UniProt B2RXH2)", "sequence (B2RXH2 whole entry, looked up, the tested form may be a part)": "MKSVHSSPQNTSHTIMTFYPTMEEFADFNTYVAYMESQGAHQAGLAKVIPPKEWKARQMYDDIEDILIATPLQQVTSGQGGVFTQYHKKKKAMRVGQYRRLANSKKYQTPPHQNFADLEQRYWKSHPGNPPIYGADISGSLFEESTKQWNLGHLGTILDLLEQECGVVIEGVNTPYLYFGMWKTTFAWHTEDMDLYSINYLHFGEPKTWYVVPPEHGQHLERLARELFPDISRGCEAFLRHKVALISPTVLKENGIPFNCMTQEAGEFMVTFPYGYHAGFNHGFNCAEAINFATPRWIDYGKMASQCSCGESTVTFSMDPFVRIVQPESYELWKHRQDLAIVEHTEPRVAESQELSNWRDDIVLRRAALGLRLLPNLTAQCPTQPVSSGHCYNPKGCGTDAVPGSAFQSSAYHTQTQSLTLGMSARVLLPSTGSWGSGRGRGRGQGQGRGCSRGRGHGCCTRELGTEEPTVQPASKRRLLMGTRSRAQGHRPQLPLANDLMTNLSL", "test": "qHTS Assay for Inhibitors of Human Jumonji Domain Containing 2E (JMJD2E)", "settings": "JMJD2E catalytic domain, FDH-coupled NADH fluorescence (FDH is formaldehyde dehydrogenase); series mostly up to 57.1 µM; activity change, negative = inhibition: at the top concentration"}
{"smiles": "O=C1N/C(=N\\N=C\\c2cccs2)SC1Cc1ccc(Cl)cc1Cl", "note": "(configuration not stated)", "activity change, negative = inhibition": "inactive: -3.22%"}
{"smiles": "CC(/C=N/NC(=O)c1cc(-c2ccc(C)o2)[nH]n1)=C\\c1ccccc1", "Potency": "inconclusive: 20 µM [inhibitor, partial curve]"}
{"smiles": "Cc1cc2cc(CNC(=O)NC3CCCCC3)ccc2[nH]1", "activity change, negative = inhibition": "inactive: -5.87%"}
{"smiles": "COc1nccnc1NS(=O)(=O)c1ccc(NC(=S)NC(=O)c2ccc(F)c(F)c2)cc1", "activity change, negative = inhibition": "inactive: -2.66%"}
{"smiles": "COc1ccc(CN2C=C3C(=O)C(C)(OC(=O)CCc4ccccc4)C(=O)C=C3C=C2c2ccc(C#N)cc2)cc1", "note": "(configuration not stated)", "Potency": "inconclusive: 3.98 µM [inhibitor, partial curve]"}
{"smiles": "Nc1ccccc1C(=O)/C=C/c1ccccc1", "activity change, negative = inhibition": "inactive: -2.83%"}
{"smiles": "COc1ccc(-c2nc3ccccc3s2)cc1", "Potency": "inconclusive: 8.91 µM [inhibitor, partial curve]"}
{"smiles": "Cc1ccccc1Oc1cccc(C(=O)/C(C#N)=C/N(C)C)c1", "activity change, negative = inhibition": "inactive: 6.78%"}
{"smiles": "O=C(Nc1cccc(NC(=O)c2cccs2)c1)c1ccc2c(c1)OCCO2", "Potency": "inconclusive: 35.5 µM [inhibitor, single point]"}
{"smiles": "Oc1ccccc1-c1nnc(COc2ccccc2)o1", "Potency": "inconclusive: 39.8 µM [inhibitor, single point]"}
{"smiles": "CSc1nc(-c2cccs2)c(C#N)c(=O)[nH]1", "Potency": "inconclusive: 39.8 µM [inhibitor, single point]"}
{"smiles": "CN1/C(=C\\C(=O)CN2C(=O)NC3(CCCCCC3)C2=O)C(C)(C)c2ccccc21", "Potency": "inconclusive: 39.8 µM [inhibitor, single point]"}
{"smiles": "O=C(NCc1ccccc1)Nc1cccn(Cc2ccccc2F)c1=O", "Potency": "inconclusive: 31.6 µM [inhibitor, partial curve]"}
{"smiles": "CC(C)n1c(C(=O)OCC(=O)NCc2ccc3c(c2)OCO3)cc2sccc21", "Potency": "inconclusive: 39.8 µM [inhibitor, single point]"}
{"smiles": "Cc1ccc(C(=O)O/N=C(\\c2ccccc2)c2ccncc2)cc1", "activity change, negative = inhibition": "inactive: -10.4%"}
{"smiles": "CCn1c(N)c(C(=O)NCc2ccc3c(c2)OCO3)sc1=S", "activity change, negative = inhibition": "inactive: -1.08%"}
{"smiles": "CC1CCN(C(=O)CSc2nc3ccccc3s2)CC1", "activity change, negative = inhibition": "inactive: 1.78%"}
{"smiles": "CCCn1c(-c2ccc(F)cc2)nc2c(NCCN(C)C)nc(C)nc21", "Potency": "inconclusive: 35.5 µM [inhibitor, partial curve]"}
{"smiles": "Cc1ccc(C)c(NCc2n[nH]c(=S)n2-c2ccccc2)c1", "activity change, negative = inhibition": "inactive: 13.1%"}
{"smiles": "Cc1cccc(CNc2cc(-c3ccoc3)ncn2)c1", "Potency": "inconclusive: 25.1 µM [inhibitor, single point]"}
{"smiles": "CC(/C=C1\\SC(=S)N(NC(=O)c2ccc(C)cc2)C1=O)=C\\c1ccccc1", "activity change, negative = inhibition": "inactive: 1.75%"}
{"smiles": "CCN(CC)CCN1C2=C(C(=O)CC(C)(C)C2)C(c2cccc(F)c2)C2=C1CC(C)(C)CC2=O", "Potency": "inconclusive: 25.1 µM [inhibitor, partial curve]"}
{"smiles": "CN1CCN(C(=S)NCCc2ccccc2)CC1", "Potency": "inconclusive: 25.1 µM [inhibitor, single point]"}
{"smiles": "COc1ccc2nc(CC(C)(C)CC(=O)O)c[n+]([O-])c2c1", "Potency": "inconclusive: 28.2 µM [inhibitor, partial curve]"}
{"smiles": "Cc1ccsc1C1NC(=O)c2c(sc3c2CCN(C)C3)N1", "note": "(configuration not stated)", "Potency": "inconclusive: 28.2 µM [inhibitor, partial curve]"}
{"smiles": "Cc1ccc(NCC(=O)N/N=C\\C(Br)=C\\c2ccccc2)cc1", "activity change, negative = inhibition": "inactive: -7.07%"}
{"smiles": "CN(C(=O)c1ccncc1)c1ccccc1", "Potency": "inconclusive: 28.2 µM [inhibitor, single point]"}
{"smiles": "Cc1cc(NC(=O)OC(C)C)ccc1-c1ccc(NC(=O)OC(C)C)cc1C", "Potency": "inconclusive: 39.8 µM [inhibitor, single point]"}
{"smiles": "Cc1c(C#N)c2ncn(Cc3ccccn3)c(=O)c2n1-c1ccccc1", "Potency": "inconclusive: 22.4 µM [inhibitor, partial curve]"}
{"smiles": "COc1ccc(-c2csc(/C(C#N)=C/Nc3ccc4c(c3)OCCO4)n2)cc1", "activity change, negative = inhibition": "inactive: -3%"}
{"smiles": "Nc1nc2nccc(-c3ccco3)n2n1", "Potency": "inconclusive: 28.2 µM [inhibitor, partial curve]"}
{"smiles": "CCCOc1ccc(-c2nc(C#N)c(NCCCn3ccnc3)o2)cc1", "Potency": "inconclusive: 31.6 µM [inhibitor, partial curve]"}
{"smiles": "CCn1c2ccccc2c2nnc(SCC(=O)c3ccccc3)nc21", "Potency": "inconclusive: 39.8 µM [inhibitor, single point]"}
{"smiles": "CC1CCc2nc(/C(C#N)=C/c3cccnc3)sc2C1", "note": "(configuration not stated)", "Potency": "inconclusive: 25.1 µM [inhibitor, partial curve]"}
{"smiles": "COc1ccc(/C=C(/NC(=O)c2ccc(OC)cc2)C(=O)NCCc2c[nH]c3ccccc23)cc1", "Potency": "inconclusive: 6.31 µM [inhibitor, single point]"}
{"smiles": "O=C(O)CSc1ncnc2scc(-c3ccccc3)c12", "activity change, negative = inhibition": "inactive: 3.41%"}
{"smiles": "COc1ccc(C(=O)OCc2cc3cccc(C)c3[nH]c2=O)cc1", "Potency": "inconclusive: 39.8 µM [inhibitor, single point]"}
{"smiles": "CCCS(=O)(=O)NCCc1cc2c(C)ccc(C)c2[nH]c1=O", "Potency": "inconclusive: 22.4 µM [inhibitor, partial curve]"}
{"smiles": "CN1N=C2c3ccccc3CCC2C1c1ccc(Cl)cc1", "note": "(configuration not stated)", "Potency": "inconclusive: 39.8 µM [inhibitor, single point]"}
{"smiles": "Cc1nn(C(C)C(=O)O)c(=O)c2ccccc12", "note": "(configuration not stated)", "Potency": "inconclusive: 39.8 µM [inhibitor, single point]"}
{"smiles": "O=C(CSC1=Nc2ccccc2C2=NC(CC(=O)NC3CCCCC3)C(=O)N12)NCc1ccco1", "note": "(configuration not stated)", "Potency": "inconclusive: 12.6 µM [inhibitor, partial curve]"}
{"smiles": "N#CC(c1ccc(Cl)cc1)c1ccc(Cl)nn1", "note": "(configuration not stated)", "activity change, negative = inhibition": "inactive: -0.835%"}
{"smiles": "O=C(O)c1ccc(NS(=O)(=O)c2ccsc2C(=O)O)c(O)c1", "Potency": "inconclusive: 39.8 µM [inhibitor, single point]"}
{"smiles": "CC1(OC(=O)CCc2ccccc2)C(=O)C=C2C=C(c3ccc(C#N)cc3)N(CCc3ccccn3)C=C2C1=O", "note": "(configuration not stated)", "Potency": "inconclusive: 10 µM [inhibitor, partial curve]"}
{"smiles": "COc1cccc2c(=O)n(CC(=O)NC3CCCC3)ccc12", "Potency": "inconclusive: 28.2 µM [inhibitor, single point]"}
{"smiles": "C=CCOc1ccc(/C=N/NC(=O)CN2CCOCC2)cc1OCC", "Potency": "inconclusive: 39.8 µM [inhibitor, single point]"}
{"smiles": "CCCSc1nc(N)c(C#N)c(-c2ccc(C)cc2)c1C#N", "Potency": "inconclusive: 39.8 µM [inhibitor, single point]"}
{"smiles": "CCOc1ccc(-c2ccc(SCC)nn2)cc1", "Potency": "inconclusive: 39.8 µM [inhibitor, single point]"}
{"smiles": "COc1cc(C(=S)N(C)C)ccc1O", "activity change, negative = inhibition": "inactive: -3.33%"}
{"smiles": "C/C(CC(=O)Nc1cc(C)ccn1)=N\\NC(=O)c1cccc(C)c1", "Potency": "inconclusive: 25.1 µM [inhibitor, partial curve]"}
{"smiles": "O=C(O)CN(C1CCCCC1)S(=O)(=O)c1ccc(F)cc1", "activity change, negative = inhibition": "inactive: 2.82%"}
{"smiles": "CC1CCC/C(=C\\Nc2ccc(C(=O)O)c(O)c2)C1=O", "note": "(configuration not stated)", "Potency": "inconclusive: 31.6 µM [inhibitor, single point]"}
{"smiles": "Cn1c(C(=O)NCCN2CCc3ccccc3C2)cc2c(=O)[nH]c3ccccc3c21", "Potency": "inconclusive: 28.2 µM [inhibitor, single point]"}
{"smiles": "CC(=O)NCCc1nc2ccccc2[nH]1", "activity change, negative = inhibition": "inactive: 0.138%"}
{"smiles": "O=S(=O)(NCCc1cn2ccccc2n1)c1ccc2c(c1)OCCO2", "Potency": "inconclusive: 39.8 µM [inhibitor, single point]"}
{"smiles": "CC1=CN2C(=N)/C(=C/c3ccc(Sc4ccc(C)cc4)o3)C(=O)N=C2S1", "activity change, negative = inhibition": "inactive: 9.14%"}
{"smiles": "CC1CCCC(C)N1/N=C/c1ccccc1C(=O)O", "note": "(configuration not stated)", "Potency": "inconclusive: 2.51 µM [inhibitor, partial curve, poor fit]"}
{"smiles": "O=c1oc2ccccc2c(NCc2cccc(F)c2)c1[N+](=O)[O-]", "activity change, negative = inhibition": "inactive: -1.6%"}
{"smiles": "O=C(O)c1cc(-c2ccco2)nc2ccc(Br)cc12", "Potency": "inconclusive: 28.2 µM [inhibitor, single point]"}
{"smiles": "CCCCOC(=O)c1[nH]c2c(c1C)C(=O)CC(c1cc(OC)c(OC)c(OC)c1)C2", "note": "(configuration not stated)", "activity change, negative = inhibition": "inactive: 0.882%"}
{"smiles": "COC(=O)N1[C@H](C)C=C[C@]1(Cc1ccccc1)C(=O)NCc1ccc(N(C)C)cc1", "Potency": "active: 17.8 µM"}
{"smiles": "CCCOc1ccc2oc(=O)c3c(c2c1)CCCN3C(=O)CN(C)Cc1ccccc1", "Potency": "inconclusive: 35.5 µM [inhibitor, single point]"}
{"smiles": "Cc1ccc2[nH]c3c(=O)n(Cc4ccncc4)cnc3c2c1", "Potency": "inconclusive: 12.6 µM [inhibitor, partial curve]"}
{"smiles": "COc1ccc(C)cc1NC(=O)Nc1cnccn1", "Potency": "inconclusive: 35.5 µM [inhibitor, single point]"}
{"smiles": "O=C(NCc1cccnc1)/C(=C\\c1ccc(-c2ccc(Cl)c(Cl)c2)o1)S(=O)(=O)c1ccccc1", "activity change, negative = inhibition": "inactive: -2.47%"}
{"smiles": "COc1ccc2cc3c(N)c(C(=O)NCc4ccco4)sc3nc2c1", "Potency": "inconclusive: 35.5 µM [inhibitor, single point]"}
{"smiles": "COc1cc2c(-c3ccc(O)cc3)nc3c(c(C)nn3-c3ccccc3)c2cc1OC", "Potency": "inconclusive: 22.4 µM [inhibitor, partial curve]"}
{"smiles": "NC(=O)c1ccc(NC(=O)COC(=O)c2ccccc2Nc2ccccc2)cc1", "Potency": "inconclusive: 39.8 µM [inhibitor, single point]"}
{"smiles": "CCOC(=O)CC1COCCN1Cc1cn(C)nc1-c1ccccc1F", "note": "(configuration not stated)", "activity change, negative = inhibition": "inactive: 0.675%"}
{"smiles": "O=C(CSc1nnc(COc2cccc3cccnc23)o1)N1CCN(C(=O)c2ccco2)CC1", "Potency": "inconclusive: 39.8 µM [inhibitor, single point]"}
{"smiles": "Cc1ccc(NC(=O)Nc2cccn(Cc3c(F)cccc3Cl)c2=O)cc1", "Potency": "inconclusive: 28.2 µM [inhibitor, partial curve]"}
{"smiles": "CCOC(=O)c1cc2c(=O)n3ccccc3nc2n(CC(C)C)c1=NC(=O)c1ccco1", "Potency": "inconclusive: 28.2 µM [inhibitor, partial curve]"}
